Data reported in PubChem BioAssay AID504339 (National Center for Advancing Translational Sciences (NCATS), 2011).
Values joined by “and” are separate entries in the source; they are usually repeats but may differ in a detail not shown here. Equal entries are not always repeated. Out of some 390,000 compounds screened, about 17,000 (4.4%) were called active. This list was built around the results that the source calls inconclusive (neither active nor inactive); the mix of calls is not that of the screen. Calls follow the shape of the dose curve; as a rule, active = well fitted inhibition curve with a large enough effect; inconclusive = small, poorly fitted or top-dose-only effect; inactive = no such curve, though single readings can be large or run the other way. Potencies of inconclusive entries are doubtful fits and often do not repeat.
% is scaled to controls: 0 for no effect and ±100 for the full control effect; potency is read from the fitted curve at half-maximal effect; tags tell the direction and shape of the fitted curve.
Also: nearly all actives have a fitted effect of over 50% in size.

What follows are compounds tested against Lysine-specific demethylase 4A (Homo sapiens) (UniProt O75164) (assay: qHTS Assay for Inhibitors of JMJD2A-Tudor Domain). Details: AlphaScreen JMJD2A-Tudor / H3K4me3 peptide binding; activity change, negative = inhibition: at 114 µM (top of the series).
Chain of UniProt O75164 (O75164 whole entry, looked up, the tested form may be a part): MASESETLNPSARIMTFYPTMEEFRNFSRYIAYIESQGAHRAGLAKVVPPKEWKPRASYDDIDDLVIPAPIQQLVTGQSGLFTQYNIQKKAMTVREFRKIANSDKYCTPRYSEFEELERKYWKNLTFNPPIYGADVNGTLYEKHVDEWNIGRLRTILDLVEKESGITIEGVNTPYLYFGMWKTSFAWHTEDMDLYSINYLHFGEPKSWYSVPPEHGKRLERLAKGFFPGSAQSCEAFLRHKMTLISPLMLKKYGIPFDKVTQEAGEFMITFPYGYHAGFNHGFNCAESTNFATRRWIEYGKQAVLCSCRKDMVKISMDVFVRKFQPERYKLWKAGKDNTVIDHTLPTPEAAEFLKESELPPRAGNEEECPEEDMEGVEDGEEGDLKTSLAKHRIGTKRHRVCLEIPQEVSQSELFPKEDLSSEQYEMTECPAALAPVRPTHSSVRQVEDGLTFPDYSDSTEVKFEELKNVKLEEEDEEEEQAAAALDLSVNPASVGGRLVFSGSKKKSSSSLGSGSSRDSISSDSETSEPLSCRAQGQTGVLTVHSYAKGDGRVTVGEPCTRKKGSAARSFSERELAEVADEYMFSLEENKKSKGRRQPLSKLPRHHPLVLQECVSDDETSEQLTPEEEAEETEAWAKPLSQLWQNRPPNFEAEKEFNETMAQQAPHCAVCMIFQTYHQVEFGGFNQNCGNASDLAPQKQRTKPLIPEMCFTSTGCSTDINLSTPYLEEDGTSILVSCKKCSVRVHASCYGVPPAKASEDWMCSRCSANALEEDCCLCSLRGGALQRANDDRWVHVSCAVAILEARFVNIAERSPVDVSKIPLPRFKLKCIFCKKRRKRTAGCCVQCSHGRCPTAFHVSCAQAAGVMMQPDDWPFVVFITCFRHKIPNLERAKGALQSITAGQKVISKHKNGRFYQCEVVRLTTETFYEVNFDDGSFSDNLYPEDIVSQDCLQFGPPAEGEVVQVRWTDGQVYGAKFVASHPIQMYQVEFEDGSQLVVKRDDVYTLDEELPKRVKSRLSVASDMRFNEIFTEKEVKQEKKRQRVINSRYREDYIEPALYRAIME
For `CCC(C)NC(=O)C1CCN(S(=O)(=O)c2ccc(-n3cnnn3)cc2)CC1` (centres undefined), the “activity change, negative = inhibition” value was inactive: -10.3%. With `COC(=O)c1cc(C)c(C)cc1NC1OC(CO)C(O)C1O` (centres undefined) the “activity change, negative = inhibition” value was inactive: 0%. With `COc1cc(/C=N/Nc2nc3ccccc3o2)cc(OC)c1O` the Potency was inconclusive: 89.1 µM [inhibitor, partial curve, poor fit]. `NNc1nc(Nc2ccccc2)nc(N2CCCCC2)n1` was tested, and the Potency was inconclusive: 89.1 µM [inhibitor, single point]. For `COc1ccc2[nH]c3c(c2c1)CCN1C(=O)N([C@@H](C)C(=O)NCc2ccccc2OC)C(=O)[C@]31C`, the Potency was inconclusive: 56.2 µM [inhibitor, partial curve, poor fit]. In the case of `COc1ccc(OC)c(CNC(=O)c2ccc(Sc3ccc(Cl)cc3)c(NC(C)=O)c2)c1`, the Potency is reported as inconclusive: 56.2 µM [inhibitor, partial curve]. With `COc1ccc(Nc2nnc(SC(C)C(=O)NC3CC3)s2)cc1` (centres undefined) the “activity change, negative = inhibition” value was inactive: -14.5%. For `CCOC(=O)c1oc2ccc(CNC(C)(C)C)c(Cl)c2c1C`, the Potency was active: 10 µM. `O=C(O)c1ccc(N/N=C/C=C/c2ccccc2[N+](=O)[O-])cc1` was tested, and the Potency was inconclusive: 56.2 µM [inhibitor, partial curve, poor fit]. `CCN1CCN(c2ccc(S(=O)(=O)N3CCOCC3)cc2NC(=O)c2ccc(C)cc2C)CC1` was tested, and the “activity change, negative = inhibition” value was inactive: -1.69%. In the case of `OC(c1ccccn1)(c1ccccn1)c1ccccn1`, the Potency is reported as active: 56.2 µM. For `CC(=O)CCc1oc2ccc(C)cc2c1-c1ccc(C)o1`, the Potency was inconclusive: 39.8 µM [inhibitor, full curve, poor fit]. With `Nc1c(-c2cccc(Cl)c2)cnn1-c1cccc([N+](=O)[O-])c1` the Potency was inconclusive: 20 µM [inhibitor, full curve]. In the case of `O=C(CN1CC(=O)Oc2ccccc21)OCC(=O)c1ccc(F)cc1`, the Potency is reported as active: 10 µM. With `Cc1nc2nc(C)c(NS(=O)(=O)c3ccc(F)cc3)c(=O)n2[nH]1` the “activity change, negative = inhibition” value was inactive: 2.74%. `Oc1c(Cl)cc(Cl)cc1C=Nc1ccc(N2CCOCC2)cc1` was tested, and the “activity change, negative = inhibition” value was inactive: -2.71%. `Cc1cc(S(=O)(=O)c2ccc([N+](=O)[O-])cn2)ccc1Br` was tested, and the “activity change, negative = inhibition” value was inactive: -11.8%. With `Cc1c(C(=O)Nc2ccc3oc(-c4cccnc4)nc3c2)oc2ccccc12` the “activity change, negative = inhibition” value was inactive: -18%. With `CN(C(=O)Cn1c(=O)n(CCC(=O)NCc2ccc3c(c2)OCO3)c(=O)c2sccc21)c1ccccc1` the “activity change, negative = inhibition” value was inactive: 2.05%. For `COc1ccc(NC(=O)CN(C)C(=O)c2ccc(-c3ccccc3Cl)o2)cc1`, the “activity change, negative = inhibition” value was inactive: -18%. `Cc1ccc(S(=O)(=O)N2[C@@H](c3ccc(Br)cc3)C(C(=O)O)=CC[C@H]2c2ccc(C(C)C)cc2)cc1` was tested, and the Potency was inconclusive: 79.4 µM [inhibitor, partial curve, poor fit]. `CCc1c(C)nc(SCc2ccccn2)[nH]c1=O` was tested, and the “activity change, negative = inhibition” value was inactive: -8.82%. For `CC(C)COc1ccc(-c2nnc(-c3ccncc3)o2)cc1`, the “activity change, negative = inhibition” value was inactive: -12.8%. `CSCCC1C(C#N)=C(N)Oc2n[nH]c(-c3cccs3)c21` (centres undefined) was tested, and the Potency was inconclusive: 79.4 µM [inhibitor, single point]. `N=c1c2c(ncn1-c1ccccc1)Oc1ccc3ccccc3c1C2c1ccc2c(c1)OCCO2` (centres undefined) was tested, and the Potency was active: 22.4 µM. With `O=C(Nc1cc(S(=O)(=O)N2CCOCC2)ccc1O)c1ccc2c(c1)S(=O)(=O)c1ccccc1C2=O` the activity change, negative = inhibition was inconclusive: -37.3% [inhibitor]. With `COc1ccc(N2C(=O)CC(Nc3cccc(C(C)=O)c3)C2=O)cc1OC` (centres undefined) the “activity change, negative = inhibition” value was inactive: -5.99%. With `O=C(Nc1cccc(NC(=O)c2cncc(Br)c2)c1)c1cncc(Br)c1` the “activity change, negative = inhibition” value was inactive: -9.09%. In the case of `CCCCNC(=O)CCC(=O)Nc1ncc(-c2ccc(C)cc2)n1C`, the Potency is reported as inconclusive: 79.4 µM [inhibitor, partial curve]. For `CC1CCCCN1S(=O)(=O)c1ccc(C(=O)N(CCCN(C)C)c2nc3cc4c(cc3s2)OCO4)cc1` (centres undefined), the Potency was inconclusive: 79.4 µM [inhibitor, partial curve]. In the case of `O=C(Nc1nnc(-c2cccs2)o1)c1cc(-c2ccccc2)nc2ccccc12`, the Potency is reported as inconclusive: 10 µM [inhibitor, full curve, poor fit]. In the case of `O=C(NNc1cc(N2CCCC2)nc(N2CCCC2)n1)c1ccc([N+](=O)[O-])cc1`, the Potency is reported as inconclusive: 39.8 µM [inhibitor, partial curve]. In the case of `O=C(Nc1c(Cl)cccc1Cl)c1cccc2c1C(=O)N(C1CCCCC1)C2`, the “activity change, negative = inhibition” value is reported as inactive: -9.33%. In the case of `CCOC(=O)CC(NS(=O)(=O)c1ccc2[nH]cc(C(=O)O)c(=O)c2c1)c1ccc(OCC)c(OC)c1` (centres undefined), the Potency is reported as active: 22.4 µM. With `O=C(NCC1(c2ccccc2)CCCC1)c1ccco1` the “activity change, negative = inhibition” value was inactive: -0.699%. With `O=C(Nc1ccccc1)OCCc1ccccn1` the “activity change, negative = inhibition” value was inactive: -13.9%. With `CCOc1ccc(NC(=O)CC2C(=O)N(c3ccc(F)cc3)C(=O)N2CCc2sccc2C)cc1` (centres undefined) the “activity change, negative = inhibition” value was inactive: -24.5%. In the case of `CCC(=O)N1CCc2cc(Br)cc(S(=O)(=O)CCC(=O)N(C)c3cccc(C)c3)c21`, the Potency is reported as active: 50.1 µM. In the case of `COc1ccc(C(=O)c2ncc(C(F)(F)F)cc2Cl)cc1`, the Potency is reported as inconclusive: 22.4 µM [inhibitor, partial curve]. In the case of `O=C(COC(=O)c1ccc(OC(F)(F)F)cc1)Nc1ncccn1`, the Potency is reported as active: 56.2 µM. `C=CC[C@H](CC(=O)N(CCO)Cc1ccccc1)C(=O)N[C@@H](COC(=O)[C@@H](CC=C)Cc1ccc(F)cc1)Cc1c[nH]c2ccccc12` was tested, and the Potency was inconclusive: 22.4 µM [inhibitor, partial curve]. `CCn1ncc(/C=N\NC(=O)c2cc(-c3ccc(C)cc3C)nc3ccccc23)c1C` was tested, and the Potency was inconclusive: 79.4 µM [inhibitor, partial curve]. For `C=CCc1cc(Cl)ccc1OCCCNC(C)C`, the Potency was active: 31.6 µM. In the case of `O=C(O)Cn1nc(-c2ccccc2)cc1-c1ccccc1`, the Potency is reported as inconclusive: 31.6 µM [inhibitor, full curve]. `COCc1c(C(=O)OCc2nnc(-c3ccc([N+](=O)[O-])cc3)o2)oc2ccccc12` was tested, and the Potency was inconclusive: 8.91 µM [inhibitor, full curve, poor fit]. With `COC(=O)c1ccccc1S(=O)(=O)C(C)(C)C` the Potency was inconclusive: 39.8 µM [inhibitor, single point]. In the case of `COc1ccc(NC(=O)Cn2nc(SC)c(S(=O)(=O)c3ccc(C)cc3)c2N)cc1OC`, the Potency is reported as inconclusive: 56.2 µM [inhibitor, partial curve, poor fit]. For `S=c1[nH]nc(-c2cccc(Cl)c2)n1Cc1ccccc1`, the Potency was inconclusive: 89.1 µM [inhibitor, single point]. In the case of `Cc1c(Cl)cccc1NC(=S)Nn1cnnc1`, the “activity change, negative = inhibition” value is reported as inactive: -28.5%. `N#Cc1c(NC(=O)c2nc3ncccn3n2)sc2c1CCCCC2` was tested, and the “activity change, negative = inhibition” value was inactive: -12.2%. In the case of `COC(=O)C1Sc2[nH]c(=O)sc2C(c2ccc(Cl)cc2)C1C(=O)OC` (centres undefined), the Potency is reported as inconclusive: 50.1 µM [inhibitor, partial curve]. `OCCOc1ccc(CN2CCN(CCCc3ccccc3)C(CCO)C2)cc1` (centres undefined) was tested, and the “activity change, negative = inhibition” value was inactive: -15%. With `CCOC(=O)c1[nH]c(C)c(/C(O)=C2\C(=O)C(=O)N(CCN(C)C)C2c2ccc(C)o2)c1C` (centres undefined) the Potency was inconclusive: 12.6 µM [inhibitor, partial curve, poor fit]. With `Cc1ccc(CNC(=O)CCS(=O)(=O)c2cc3c(cc2Cl)NC(=O)CO3)cc1` the Potency was inconclusive: 15.8 µM [inhibitor, full curve] and inconclusive: 22.4 µM [inhibitor, partial curve, poor fit]. In the case of `COc1ccc(N2CCN(CC(O)COc3ccc(C)cc3C)CC2)cc1` (centres undefined), the Potency is reported as active: 44.7 µM. With `COC(=O)N/N=C/c1cc(C)n(-c2cccc3ccccc23)c1C` the Potency was inconclusive: 50.1 µM [inhibitor, partial curve]. With `Cc1cccc(NC(=O)c2cnn(C)c2)c1C` the “activity change, negative = inhibition” value was inactive: 0%. In the case of `CNC(=S)NNS(=O)(=O)c1ccc(OC)cc1OC`, the “activity change, negative = inhibition” value is reported as inactive: -4.9%. In the case of `CSc1ccccc1NC(=O)CN(C)CC(=O)Nc1ccc(Cl)cc1[N+](=O)[O-]`, the Potency is reported as inconclusive: 44.7 µM [inhibitor, full curve]. For `Cc1ccccc1-c1nc(C#N)c(N2CCCCC2)o1`, the Potency was inconclusive: 50.1 µM [inhibitor, partial curve]. With `Cc1nc(NCCN2CCOCC2)c2nnn(Cc3c(F)cccc3Cl)c2n1` the “activity change, negative = inhibition” value was inactive: -4.29%. In the case of `Cc1cccc(N=C2NC(=O)/C(=C/c3cccn3C)S2)c1`, the Potency is reported as inconclusive: 7.94 µM [inhibitor, full curve, poor fit]. In the case of `NC(=O)CN1CCN(c2ccccc2F)CC1`, the “activity change, negative = inhibition” value is reported as inactive: -5.14%. In the case of `Cc1cc(=S)cc(C)n1CCCO`, the Potency is reported as inconclusive: 25.1 µM [inhibitor, partial curve]. For `Cc1ccc2[nH]c(CN3CCC(CO)(CC4CCCCO4)CC3)c(C)c2c1` (centres undefined), the Potency was inconclusive: 63.1 µM [inhibitor, partial curve]. For `CC(O)[C@H]1CN=C(N)N1CC1CCCCC1` (some centres undefined), the Potency was inconclusive: 17.8 µM [inhibitor, full curve]. In the case of `CCOc1ccc(S(=O)(=O)N2CCN(C(=S)NCc3ccco3)CC2)cc1`, the Potency is reported as inconclusive: 25.1 µM [inhibitor, single point]. For `Cc1c(C#N)c(N)nc(Cl)c1C#N`, the “activity change, negative = inhibition” value was inactive: -1.37%. In the case of `COc1ccccc1OCC(=O)Nc1nnc(-c2ccco2)s1`, the Potency is reported as inconclusive: 56.2 µM [inhibitor, partial curve]. `Cc1cc2cc(C(=O)N3CCc4c([nH]c5ccccc45)C3c3ccccn3)ccc2o1` (centres undefined) was tested, and the Potency was active: 35.5 µM. For `CCc1c(C)c2cc(Cl)c(O)c(CN(C)C)c2oc1=O`, the Potency was inconclusive: 14.1 µM [inhibitor, full curve, poor fit]. With `NNC(=O)c1cc(-c2ccccc2)sc1N` the Potency was inconclusive: 56.2 µM [inhibitor, partial curve]. `COc1cc(/C=C/C(=O)O)cc(S(=O)(=O)Nc2cc(Cl)c(Cl)cc2Cl)c1OC` was tested, and the “activity change, negative = inhibition” value was inactive: -14.8%. For `Cc1ccc(/C=N/NC(=O)c2cccc(S(=O)(=O)N3CCOCC3)c2)o1`, the “activity change, negative = inhibition” value was inactive: -8.45%.
